# Reference: PubChem BioAssay AID1345083 (National Center for Advancing Translational Sciences (NCATS), 2018)
# In all, about 94,000 compounds went through this assay and about 6,200 (6.6%) were called active. Inconclusive results, whose numbers are uncertain, are shown with a selection of clear calls. The call rests on the fitted dose curve; in most records, active means well fitted inhibition curve with a large enough effect; inconclusive means small, poorly fitted or top-dose-only effect; inactive means flat fitted curve, though single readings scatter. A potency beside an inconclusive call is a rough fit, not a confirmed value.
# Test: Cytotoxic Profiling in HEK 293 Cell Line of Diverse Libraries Using Quantitative High-Throughput Screening; further: nearly all actives have a fitted effect of over 60% in size
# Details: HEK 293 viability, ATP luminescence (CellTiter-Glo), 48-72 h; series mostly up to 115 µM
# Method in brief: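 HEK 293 cells seeded at 250 cells/well were exposed to compound for 48 or 72 hr at 37 degree Celsius. Viability taken as ATP content by CellTiter-Glo luminescence.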
# Potency means the concentration at half of the fitted maximal effect; tags describe the fitted curve by direction and shape.
row,SMILES,Potency
1,O=C1c2c(nc(CN3CCC(F)(F)CC3)n2Cc2ccccc2)NCCN1Cc1cccc(Cl)c1,"inconclusive: 35.5 µM [inhibitor, full curve]"
2,Cc1nnc2ccc(N3CCC(NC(=O)Cc4ccc(F)cc4)C3)nn12 (stereo not given),inactive
3,O=C(CCc1cc2n(n1)CCCNC2)Nc1ccc(-n2cncn2)cc1,inactive
4,O=C(c1nc2cccnc2n(CCc2ccccc2)c1=O)N1CCN([S+](=O)([O-])c2cccc(C(F)(F)F)c2)CC1,inactive
5,OCC1CN(c2ccncn2)CC12CCN(Cc1ccc(F)c(F)c1)CC2 (stereo not given),"inconclusive: 56.2 µM [inhibitor, partial curve, poor fit]"
6,COCCN(C)C[C@@H]1CN(C(=O)Cc2ccc3c(c2)OCO3)C[C@@H]1CO,"inconclusive: 89.1 µM [inhibitor, single point]"
7,CN(Cc1cccnc1)c1nc2c(c(=O)[nH]1)CCN(Cc1ccc3cc[nH]c3c1)CC2,"inconclusive: 50.1 µM [inhibitor, partial curve, poor fit]"
8,O=C(CCc1nc2ccccc2s1)NCCc1noc(-c2ccncc2)n1,inactive
9,Cc1nnc([C@H]2CCN(Cc3ccco3)C2)o1,inactive
10,NCCc1cccc(CN2CCCC(CO)(CC3CC3)C2)c1 (stereo not given),"inconclusive: 35.5 µM [inhibitor, partial curve, poor fit]"
11,COc1ccc(CN2C[C@H]3CN(S(=O)(=O)c4ccc(C)cc4)CCN3C2=O)cc1,"inconclusive: 56.2 µM [inhibitor, partial curve, poor fit]"
12,CC(C)c1ccc(NC(=O)[C@@H]2COCC(=O)N2Cc2ccccc2)cc1,inactive
13,COCCN1C(=O)c2cccn2CC1CNC(=O)NCc1ccccc1 (stereo not given),"inconclusive: 70.8 µM [inhibitor, partial curve, poor fit]"
14,CC(=O)N1CCCN(c2ncnc3c2CN(C2CCC2)C(=O)CN3C)CC1,inactive
15,COc1ccc(Cn2c3c(c(=O)n2Cc2ccccc2)CCN(C(=O)C2CCOCC2)C3)cc1,inactive
16,Cc1ccc(Nc2ccnc(N3CCCC3C(=O)NC(C)C)n2)cc1 (stereo not given),"inconclusive: 44.7 µM [inhibitor, partial curve, poor fit]"
17,COc1ccc(CN2CCC3(C2)C(=NC2CCCCC2)NC(=O)N3c2cccc(OC)c2)cc1 (stereo not given),"inconclusive: 79.4 µM [inhibitor, partial curve, poor fit]"
18,Clc1ccc(-c2cnc3n2C[C@H](CNCc2ccc4c(c2)OCO4)OC3)cc1,active: 89.1 µM
19,CC(=O)N1CCC(C2CCN(Cc3cc(Cl)ccc3F)C2)CC1 (stereo not given),"inconclusive: 44.7 µM [inhibitor, partial curve, poor fit]"
20,CN(C)c1nc2c(c(N3C[C@@H](CN4CCCC4)[C@@H](CO)C3)n1)CCCC2,"inconclusive: 39.8 µM [inhibitor, partial curve, poor fit]"
21,Cc1ccc(C(=O)N2CCC(c3nn(-c4ccc(Cl)cc4)c(=O)[nH]3)CC2)cc1,"inconclusive: 89.1 µM [inhibitor, single point]"
22,COc1ccc(-c2ccnc(N[C@H]3CO[C@H]4[C@@H]3OC[C@H]4OC(=O)Nc3cccc(OC)c3)n2)cc1,"inconclusive: 39.8 µM [inhibitor, full curve, poor fit]"
23,COc1ccc(C(=O)N2CCCCCCNC(=O)[C@@H]3CCC[C@@H]32)c(OC)n1,inactive

row,SMILES,Potency
1,CN1CCN(c2nc(C(=O)NC(C)(C)C)cs2)CC1,inactive
2,CC(=O)Nc1cccc(-c2ccnc(-c3nnc(C)n3C(C)C)c2)c1,"inconclusive: 100 µM [inhibitor, partial curve, poor fit]"
3,CN1C[C@@H](NC(=O)c2ccccc2)C[C@H]1c1nc(-c2ccc(F)cc2)no1,"inconclusive: 100 µM [inhibitor, partial curve, poor fit]"
4,COc1ccc(C(=O)NC2CCN(c3ccc4nnc(C)n4n3)C2)cc1 (stereo not given),inactive
5,COc1ccc(C(=O)N2CC(C(=O)NCCc3ccncc3)C3(CCOCC3)C2)cc1 (stereo not given),inactive
6,Cc1nccn1CCC1CCN(c2nccc(-c3ccccn3)n2)CC1,"inconclusive: 44.7 µM [inhibitor, partial curve, poor fit]"
7,Cc1ccccc1C(=O)N(C)C1CCCc2ccccc21 (stereo not given),active: 89.1 µM
8,O=C1Nc2ccccc2O[C@H]2C[C@@H]1N(C1CCCC1)C2,inactive
9,CN(Cc1cc(C(C)(C)C)n[nH]1)C(=O)[C@H]1CCC[C@@H](O)C1,inactive
10,COc1ccc(-c2cc(N3CCCC(NC(=O)c4cccc5[nH]ccc45)C3)n[nH]2)cc1 (stereo not given),active: 44.7 µM
11,Cc1noc([C@@H]2CC(F)(F)CN2C(=O)c2cc(C3CC3)[nH]n2)n1,inactive
12,CC(C)CN1CCOC[C@H](Oc2ccc(S(C)(=O)=O)cc2)C1,inactive
13,CC(C)C1CN(C(=O)CN2CCCCC2=O)CCCN1Cc1ccc(F)cc1 (stereo not given),"inconclusive: 35.5 µM [inhibitor, partial curve, poor fit]"
14,Cc1noc(C)c1[S+](=O)([O-])N1CCCC(C(=O)N2CCC(N3CCOCC3=O)CC2)C1 (stereo not given),inactive
15,Cn1ncc2c(C(=O)N3CCCCC3)cc(-c3ccccc3F)nc21,"inconclusive: 89.1 µM [inhibitor, partial curve, poor fit]"
16,O=C1NC2(CCN([S+](=O)([O-])c3cccc(C(F)(F)F)c3)CC2)Oc2ccccc21,"inconclusive: 50.1 µM [inhibitor, partial curve, poor fit]"
17,O=C1CCN(Cc2cccnc2)CCCC(C(=O)NCc2cc(F)cc(F)c2)CCN1 (stereo not given),inactive
18,COCc1cc(=O)n(CC(=O)Nc2cccc(F)c2)c(N2CCOCC2)n1,inactive
19,Cc1ccc(C(=O)NC2CCCN(CCn3nc4n(c3=O)CCCC4)C2)cc1 (stereo not given),inactive
20,CC1(c2ccccc2)N(Cc2ccccc2C#N)C(=O)OC12CCN(C(=O)COc1ccccc1)CC2 (stereo not given),"inconclusive: 50.1 µM [inhibitor, partial curve, poor fit]"
21,COc1ccc(N2CCN(C3CCCN(Cc4cc(=O)[nH]c(=O)[nH]4)C3)CC2)cc1 (stereo not given),inactive
22,Cc1ccc(C)c(C(=O)NCc2nnc3cc(-c4nc(C)no4)ccn23)c1,"inconclusive: 31.6 µM [inhibitor, partial curve, poor fit]"
